Results published in PubChem BioAssay AID463173 (ICCB-Longwood Screening Facility, Harvard Medical School, 2010).
The whole screen tested about 52,000 compounds, of which about 4,300 (8.3%) were called active. Cut-off read from the data, not from the text of the source: active = survival mostly below about 52% (no sharp cut-off); inactive = mostly above about 56%. Some of the results follow.

The compounds below were run on DeltatarO mutant (assay: growth inhibition of S. aureus wild type versus tarO mutant, primary screen, teichoic acid synthesis inhibitors, RN4220, OD600 (AID 463173)). Conditions: OD600, 18 h, hits give low values, screened at 18.75 µg/mL (by protocol).

| Structure (SMILES) | survival |
| --- | --- |
| N=C(N)SCC(=O)Nc1ccccc1 | inactive: 86% |
| CCCSc1nsc(SCCC)c1C(N)=O | inactive: 65% |
| COc1cccc(N2CCN(C(=O)C3CCN(S(=O)(=O)c4cccc5nonc45)CC3)CC2)c1 | inactive: 90% |
| Cc1nn(C)c2c1c(-c1ccccc1)cc(=O)n2Cc1ccccc1Cl | inactive: 88% |
| Cc1cc(NC(=O)CCNS(=O)(=O)c2ccc3c(c2)CCCC(=O)N3)ccc1Br | inactive: 76% |
| Cc1ccc(CN(C(=O)COc2ccc(Cl)cc2)c2ccccn2)o1 | inactive: 64% |
| COc1ccc(-c2nc(CCNC(=O)c3cccs3)cs2)cc1 | inactive: 109% |
| CCOc1ccc(CNC(=O)CCCn2nc(C)c3sc4ccccc4c3c2=O)cc1 | inactive: 80% |
| CCC(C)Nc1sc(S(=O)(=O)CC)nc1S(=O)(=O)c1ccc(C)cc1 (stereo not drawn) | inactive: 77% |
| COC(=O)c1cc(S(=O)(=O)NCC2CCN(Cc3ccc(C)cc3)CC2)cn1C | inactive: 73% |
| CCCOc1ccc(-c2nn(-c3ccccc3)cc2C2NC(=O)NC(C)=C2C(=O)OC)cc1 (stereo not drawn) | inactive: 61% |
| CCc1ccc(C(=O)c2cn(CC(=O)Nc3cc(OC)ccc3OC)c3ccc(C)cc3c2=O)cc1 | inactive: 71% |
| Cc1cccc(NS(=O)(=O)c2ccc3c(c2)[C@H]2C=CC[C@H]2[C@@H](c2ccc(F)cc2)N3)c1 | active: 39% |
| COc1cc(C(=O)OC(C)CN2C(C)CCCC2C)cc(OC)c1OC (stereo not drawn) | inactive: 77% |
| Cc1ccc(C)c(NC(=O)Cn2c(=O)nc(-c3ccccc3)c3ccccc32)c1 | inactive: 71% |
| CCOc1ccccc1NC(=O)c1c(NCc2ccc(C)o2)sc2c1CCC(C)C2 (stereo not drawn) | inactive: 100% |
| COc1ccc(CCNC(=O)Cn2nc(C)n3c(cc4cc(F)ccc43)c2=O)cc1OC | inactive: 118% |
| CCCCN(C)C(=O)Cn1c(C2CC(=O)N(c3ccc(C)cc3)C2)nc2ccccc21 (stereo not drawn) | inactive: 63% |
| Cc1ccc(C)c(N2CCN(C(=O)c3cc4c(=O)n(Cc5ccco5)ccc4nc3C)CC2)c1 | inactive: 83% |
| COc1cccc(C(=O)Nc2cccc(NC(=O)c3ccc(Cl)cc3Cl)c2)c1 | inactive: 71% |

| Structure (SMILES) | survival |
| --- | --- |
| CC(=O)N(Cc1cccnc1)Cc1cc2cc3c(cc2[nH]c1=O)OCCO3 | inactive: 84% |
| CC(=O)N1c2ccccc2C(=O)C1N1CCN(c2ccc(F)cc2)CC1 (stereo not drawn) | inactive: 94% |
| COc1ccc(NC(=O)c2ccc(CNS(=O)(=O)c3ccc4c(c3)C(C)(C)C(=O)N4C)cc2)cc1 | inactive: 90% |
| CCCCN(C)C(=O)C1CCC(CNS(=O)(=O)c2ccc3c(c2)CC(C)N3C(C)=O)CC1 (stereo not drawn) | inactive: 62% |
| CCN(CC)C(=O)Cn1c(SCCOc2ccc(Cl)cc2)nc2ccccc21 | active: 43% |
| CCCc1nn2c(=O)cc(COc3ccc(/C=C(\C#N)C(=O)Nc4ccc(F)cc4)cc3)nc2s1 | inactive: 65% |
| O=C(CCS(=O)(=O)c1cc2c(cc1Cl)NC(=O)CO2)NCCc1ccc(Cl)cc1 | inactive: 106% |
| Cc1ccc(-n2nnnc2C2CCN(S(=O)(=O)c3ccc(OC(F)(F)F)cc3)CC2)cc1 | inactive: 110% |
| CC1(C)CC(=O)c2cnc(N)nc2C1 | inactive: 93% |
| Nc1nonc1/C(=N/O)N1CCCC1 | inactive: 113% |
| CCOc1ccccc1CNC(=O)CCc1cn(Cc2ccc(Cl)cc2)c2ccccc12 | inactive: 55% |
| Cc1ccc(OCC(O)CN2C(=O)NC(C)(C)C2=O)c(Cl)c1 (stereo not drawn) | inactive: 60% |
| CCN(C(=O)Cn1c(=O)oc2cc(S(=O)(=O)N3CCCC3)ccc21)c1cccc(C)c1 | inactive: 83% |
| COc1cccc(-n2c(=O)c3c(C)c(C(=O)N(C)C)sc3n(CC(=O)Nc3ccc(C)cc3Cl)c2=O)c1 | inactive: 74% |
| O=C(Nc1ccc2c(c1)N(C1CCCC1)C(=O)c1ccccc1S2)c1cccc(F)c1 | inactive: 54% |
| COc1cccc(CNC(=O)C2CCCN(c3ncnc4onc(-c5ccc(F)cc5)c34)C2)c1 (stereo not drawn) | inactive: 80% |
| CC(C)OCCCNC(=O)CN1C(=O)CSc2ccc(S(=O)(=O)N3CCCCC3)cc21 | inactive: 99% |
| O=c1c2cc3sccc3n2cc(-c2ccccc2)n1-n1cccc1 | inactive: 105% |
| O=C1CC(c2nc(-c3cccc(Cl)c3)no2)CN1c1ccc2c(c1)OCCO2 (stereo not drawn) | inactive: 144% |
| CC(=O)n1c2ccccc2c2cc(Cl)ccc21 | inactive: 95% |

| Structure (SMILES) | survival |
| --- | --- |
| CCc1nnc2c(NCCc3ccc(OC)c(OC)c3)nc3ccccc3n12 | inactive: 133% |
| CN1C(N)=NC(=O)C1(CO)CO | inactive: 97% |
| COc1ccc(-c2onc(C)c2C)cc1S(=O)(=O)NCc1ccc(Br)cc1 | inactive: 101% |
| O=C1CC(c2ccco2)CC(O)=C1C=NCCN1CCNCC1 (stereo not drawn) | inactive: 92% |
| Cc1ccc2cc(C#N)c(SCC(=O)N3CCCC3)nc2c1 | inactive: 103% |
| Cc1cc(C)cc(NC(=O)CN(C)S(=O)(=O)c2ccc3[nH]c4c(c3c2)CCCC4)c1 | inactive: 72% |
| CCOc1ccc(CCNC(=O)c2c(C)oc3ncnc(N4CCOCC4)c23)cc1 | inactive: 95% |
| COCCCNC(=O)CSc1nc2ccccc2c(=O)n1Cc1ccco1 | inactive: 83% |
| Cc1ccc(NC(=O)CN2C(=O)COc3ccc(S(=O)(=O)N4CCCCCC4)cc32)cc1C | inactive: 82% |
| COc1ccc(CNC(=O)c2ccc3[nH]c(C)c(C)c3c2)c(OC)c1 | inactive: 81% |
| N#C/C(=C\c1ccc(-c2ccc(F)cc2F)o1)c1nc2ccccc2[nH]1 | active: 22% |
| CCC(C)(C)c1nnc(N)s1 | inactive: 84% |
| COc1ccc(C(=O)Nc2ccc(OCc3cc(=O)n4ccccc4n3)cc2)cc1 | inactive: 81% |
| COC(=O)c1c(NC(=O)COc2cc(C)c(Cl)c(C)c2)sc2c1CCCC2 | inactive: 147% |
| COc1ccc(OC)c(S(=O)(=O)Nc2cc3c(C(C)=O)c(C)oc3c3ccccc23)c1 | inactive: 52% |
| COc1ccc(-c2cc(C(F)(F)F)nc(SCCC(=O)Nc3cc(C)on3)n2)cc1 | inactive: 86% |
| CCOc1ccc(NS(=O)(=O)c2ccc3c(c2)CCN3C(C)=O)cc1 | inactive: 127% |
| CC(=O)N1C(Nc2ccc(Cl)cc2)CCN1c1ccccc1 (stereo not drawn) | inactive: 103% |
